Reference: the supplement of paper PMC12217912
The list shows a part of the results. The full chains were built here from the parent and the listed change. Values near 0.05 are background.

B1: TEV protease; numbered along this chain (parent)
chain: MGESLFKGPRDYNPISSSICHLTNESDGHTTSLYGIGFGPFIITNKHLFRRNNGTLVVQSLHGVFKVKDTTTLQQHLVDGRDMIIIRMPKDFPPFPQKLKFREPQREERICLVTTNFQTKSMSSMVSDTSCTFPSGDGIFWKHWIQTKDGQCGSPLVSTRDGFIVGIHSASNFTNTNNYFTSVPKNFMELLTNQEAQQWVSGWRLNADSVLWGGHKVFMVKPEEPFQPVKEATQL

Variants of: B1
Experiment: raw area under fraction-flipped curve 0-4 h after induction (AUC4h, not background-subtracted), DNA-recorder readout of cleavage of the substrate (dimensionless); higher = more cleavage of the substrate by the protease variant
Conditions: temperature: 34 °C; time window: 0-4 h after rhamnose induction
Description: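 In vivo DNA recorder in E. coli TOP10(DE3) ΔrhaA at 34 °C. Each TEVp single-site mutant (parent TEVp 0) is paired with a single-site variant of the 7-mer TEVs (canonical ENLYFQ|S). The substrate sits between flexible linkers in a Bxb1-sfGFP-TEVs-SsrA fusion, so cleavage stabilises Bxb1 and speeds flipping of a recombination array, read by NGS. The value is the raw area under the fraction-flipped curve over 0-4 h after rhamnose induction (AUC4h), with ≥20 reads per time point. It is not background-subtracted; inactive controls average about 0.047.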
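Note: Bxb1 expression induced with 0.2% (w/v) L-rhamnose at OD600 near 0.5, cultures sampled hourly, flipped fraction per protease–substrate barcode pair counted by paired-end Illumina sequencing.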

Variant | area with substrate ENLYFQA | area with substrate ENLYFQG | area with substrate ENLYFQI | area with substrate ENLYFQK | area with substrate ENLYFQL | area with substrate ENLYFQN | area with substrate ENLYFQQ | area with substrate ENLYFQS | area with substrate ENLYFQV | area with substrate ENLYFQW | area with substrate ENLYFQY | area with substrate ENLYFQC | area with substrate ENLYFQE | area with substrate ENLYFQM | area with substrate ENLYFQR | area with substrate ENLYFQT | area with substrate ENLYFQD | area with substrate ENLYFQF | area with substrate ENLYFQH | area with substrate ENLYFQP
I86P | 0.042 | 0.0461 | 0.0362 | 0.0402 | 0.0392 | 0.0296 | 0.0396 | 0.038 | 0.0358 | 0.0383 | 0.0338 |  |  |  |  |  |  |  |  | 
I86H | 0.0578 | 0.0342 | 0.0367 | 0.0407 | 0.0407 | 0.0314 |  | 0.0444 | 0.0428 | 0.0212 |  | 0.0492 | 0.0458 | 0.0378 | 0.0401 | 0.042 |  |  |  | 
Q75S | 0.112 | 0.0749 |  | 0.0534 | 0.0564 | 0.0744 |  | 0.083 |  | 0.041 |  |  |  |  | 0.069 | 0.0499 | 0.0644 | 0.0472 | 0.0659 | 
Q75L | 0.0863 |  |  |  |  |  |  | 0.13 |  |  |  |  |  |  |  |  |  |  |  | 
R87L | 0.0882 | 0.109 | 0.0473 | 0.0639 |  | 0.104 |  | 0.102 |  | 0.0606 |  |  |  |  | 0.0628 | 0.0445 | 0.0656 | 0.0848 | 0.0855 | 
S127R | 0.103 |  |  |  |  | 0.103 |  | 0.112 |  | 0.0572 | 0.0757 | 0.129 |  | 0.111 | 0.0583 | 0.0412 |  | 0.0765 | 0.0806 | 0.0668
S127N | 0.116 |  |  | 0.0691 | 0.0471 | 0.083 | 0.0615 | 0.108 | 0.0608 | 0.0757 | 0.0988 |  |  | 0.0912 | 0.0653 | 0.0666 | 0.0817 |  | 0.0844 | 0.0571
D91G | 0.095 | 0.0979 |  | 0.0641 | 0.042 | 0.0953 | 0.0909 | 0.101 |  | 0.0662 |  | 0.145 |  | 0.0916 | 0.0598 | 0.0609 | 0.0815 |  |  | 0.0615
D91Y | 0.0552 | 0.0576 |  | 0.0582 | 0.0804 |  |  | 0.0977 | 0.0348 |  | 0.104 | 0.119 |  |  | 0.0456 |  |  |  | 0.0743 | 0.0768
P134M | 0.111 |  | 0.0563 | 0.0727 |  |  |  | 0.0942 | 0.0651 | 0.0722 |  | 0.106 |  | 0.0894 | 0.0624 | 0.0661 |  |  | 0.0755 | 
T72I | 0.0659 |  |  | 0.0612 | 0.0459 | 0.0747 |  | 0.11 |  | 0.0717 | 0.0742 |  |  |  | 0.0382 |  |  |  |  | 0.0642
T72W | 0.0711 | 0.0689 |  |  |  | 0.0543 |  | 0.0789 |  | 0.053 |  | 0.0849 |  |  | 0.0522 | 0.0674 | 0.0663 |  | 0.0688 | 
H143Q | 0.0604 |  | 0.0578 | 0.05 | 0.0551 | 0.0439 | 0.0477 | 0.0612 | 0.0654 | 0.0668 | 0.0581 |  | 0.0548 | 0.0591 | 0.0544 | 0.0516 |  |  | 0.054 | 
H143E | 0.0666 | 0.0289 | 0.047 | 0.0537 |  | 0.0428 |  | 0.0577 | 0.0615 |  | 0.0563 | 0.0565 | 0.0826 | 0.0523 | 0.0652 | 0.0424 | 0.0736 | 0.0537 | 0.0554 | 0.0536
H143V | 0.0671 | 0.0761 | 0.0552 | 0.034 | 0.0597 | 0.0593 | 0.0572 | 0.0738 | 0.0488 | 0.0627 | 0.079 | 0.0997 |  | 0.0502 | 0.0492 |  |  | 0.0456 | 0.0668 | 0.0612
P89G | 0.0816 |  |  | 0.0748 |  | 0.071 |  | 0.0873 |  |  | 0.0976 |  |  | 0.0614 | 0.057 |  |  | 0.057 |  | 0.0469
P89R | 0.0778 | 0.0704 | 0.0467 | 0.0586 | 0.0661 | 0.0641 |  | 0.0803 | 0.0705 | 0.061 | 0.0782 | 0.1 |  | 0.0695 | 0.0294 |  |  | 0.0677 |  | 0.0545
K90T | 0.101 | 0.087 | 0.0877 |  |  | 0.0996 | 0.0596 | 0.101 |  |  | 0.0686 | 0.102 |  | 0.0863 |  |  |  | 0.0725 | 0.0831 | 0.0545
K90D | 0.0758 |  |  | 0.0754 |  |  |  | 0.108 |  |  |  |  |  |  | 0.0581 |  |  |  |  | 
C111Q | 0.123 |  | 0.0722 | 0.0577 | 0.0638 |  | 0.0807 | 0.107 | 0.0587 | 0.061 | 0.0746 |  |  |  | 0.0612 |  |  |  |  | 
M125F | 0.123 |  | 0.0617 | 0.0703 | 0.047 | 0.0677 |  | 0.105 |  |  | 0.0832 | 0.113 |  | 0.0849 |  | 0.0587 |  |  | 0.0809 | 
I85S | 0.0653 | 0.0439 | 0.0547 | 0.0571 | 0.0648 | 0.0406 |  | 0.054 | 0.0695 |  |  | 0.0577 |  |  | 0.056 |  |  |  |  | 
I85N | 0.0356 | 0.0506 | 0.0372 |  | 0.0459 | 0.0515 |  | 0.0531 |  |  |  | 0.0572 |  | 0.0469 | 0.0843 | 0.0484 |  |  |  | 
T114G | 0.13 | 0.0941 | 0.0547 |  |  | 0.0834 |  | 0.122 |  |  |  |  | 0.0493 | 0.0939 |  | 0.0794 |  | 0.0973 | 0.0858 | 
T114S | 0.107 |  | 0.058 | 0.0709 | 0.0722 |  |  | 0.111 | 0.0755 |  |  | 0.133 |  | 0.0634 | 0.0652 | 0.0741 | 0.0755 |  | 0.0848 | 0.0828
T129R | 0.106 |  | 0.0594 |  | 0.0642 | 0.0803 | 0.0854 | 0.0994 | 0.0462 | 0.0672 |  |  |  | 0.0778 | 0.0555 |  | 0.0832 |  |  | 0.0684
V126K | 0.0919 | 0.095 | 0.0472 |  | 0.0567 | 0.0752 |  | 0.102 |  |  | 0.0954 | 0.122 |  | 0.0972 | 0.0705 |  |  |  | 0.0749 | 
V126D | 0.0869 |  | 0.0656 | 0.0589 |  |  |  | 0.099 | 0.062 |  | 0.117 |  |  | 0.0945 | 0.0558 | 0.0701 | 0.0864 |  |  | 
V78H | 0.0667 | 0.0661 |  | 0.0673 |  | 0.0701 |  | 0.0695 |  |  |  | 0.0785 |  | 0.0655 | 0.0583 |  |  |  | 0.0617 | 0.0611
G136I | 0.14 | 0.0909 | 0.0597 | 0.0617 |  | 0.0854 |  | 0.102 | 0.0428 | 0.0655 |  | 0.135 |  | 0.141 | 0.0555 | 0.0588 |  |  | 0.145 | 
